Assay results from PubChem BioAssay AID588579 (National Center for Advancing Translational Sciences (NCATS), 2011).
Where “and” joins values, the source holds several entries; their conditions need not be identical. Equal values may be shown once. In all, about 400,000 compounds went through this assay and about 2,200 (0.55%) were called active. Roughly 1% stayed inconclusive and do not appear here. Calls come from the whole dose curve; as a rule, active = well fitted inhibition curve with a large enough effect; inconclusive = small, poorly fitted or top-dose-only effect, or another doubt; inactive = no such curve, though single readings can be large or run the other way. Only a part is listed here, and it is no random draw. The source holds several records for some structures; these can differ, active in one and inactive in another. Residues, ends and D or L forms follow the SMILES beside them. Groups on a side chain read outwards from the residue. *: point of attachment. Nicotinoyl = O=C(c1cccnc1)*; Cbz = O=C(OCc1ccccc1)*

Molecular target: DNA polymerase kappa (Homo sapiens) (UniProt Q9UBT6)
Experiment: qHTS for Inhibitors of Polymerase Kappa
Settings: purified Pol kappa, fluorescent DNA synthesis assay, 10 min; series mostly up to 107 µM; activity, negative = inhibition: at the top concentration
In short: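 Activity was followed as the change in fluorescence between reads at 0 and 10 min after starting the reaction with 50 nM substrate. Beforehand, 10 nM polymerase had been preincubated with compound for 15 min at room temperature.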
% is set by controls: 0 for no effect and ±100 for the full control effect; potency is the fitted concentration of half-maximal effect.

UniProt Q9UBT6, sequence (Q9UBT6 whole entry, looked up): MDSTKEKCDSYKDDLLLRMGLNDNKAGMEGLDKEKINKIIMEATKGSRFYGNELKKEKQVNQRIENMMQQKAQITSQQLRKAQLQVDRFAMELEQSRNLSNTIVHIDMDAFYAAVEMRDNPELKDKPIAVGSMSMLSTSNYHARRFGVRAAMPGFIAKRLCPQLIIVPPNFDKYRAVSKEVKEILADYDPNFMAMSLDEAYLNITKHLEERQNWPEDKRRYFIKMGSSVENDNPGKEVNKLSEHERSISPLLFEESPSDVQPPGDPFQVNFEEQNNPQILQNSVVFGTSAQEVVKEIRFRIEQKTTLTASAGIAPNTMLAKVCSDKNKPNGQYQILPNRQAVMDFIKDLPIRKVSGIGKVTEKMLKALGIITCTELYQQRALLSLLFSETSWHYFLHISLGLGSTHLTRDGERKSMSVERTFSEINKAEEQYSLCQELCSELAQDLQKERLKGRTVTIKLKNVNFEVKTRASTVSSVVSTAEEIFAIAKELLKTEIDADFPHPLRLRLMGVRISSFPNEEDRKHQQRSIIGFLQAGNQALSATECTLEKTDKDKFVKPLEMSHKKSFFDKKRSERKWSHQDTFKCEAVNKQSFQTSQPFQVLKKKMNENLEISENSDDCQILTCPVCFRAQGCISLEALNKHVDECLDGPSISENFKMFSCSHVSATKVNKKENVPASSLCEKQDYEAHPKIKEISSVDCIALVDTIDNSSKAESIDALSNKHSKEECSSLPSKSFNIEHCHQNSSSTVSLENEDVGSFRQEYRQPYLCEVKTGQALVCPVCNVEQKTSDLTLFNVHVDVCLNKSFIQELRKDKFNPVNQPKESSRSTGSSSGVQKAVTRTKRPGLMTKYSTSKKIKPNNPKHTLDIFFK

activity, negative = inhibition, inactive:
COC(=O)c1scc(-c2ccc(C)cc2)c1S(=O)(=O)N1CCN(c2ccc(OC)cc2)CC1 24.9%
C[C@@H](O)CC(=O)O -6.98%
O=C(NCc1ccc(Cl)cc1)c1ccc(Br)o1 -19.7%
CC(=O)N(O)C/C=C/c1cccc(Oc2ccccc2)c1 12.4% [at 60.1 µM]
COc1cc(/C=C(/C#N)C(=O)Nc2cc(C(F)(F)F)ccc2Cl)ccc1OCC(=O)Nc1cccc(C(F)(F)F)c1 -4.96%
C[C@@H]1O[C@@H](OC2O[C@@H](COc3cc(O)c4c(=O)cc(-c5ccc(O)cc5)oc4c3)[C@@H](O)[C@@H](O)[C@@H]2O)[C@H](O)[C@H](O)[C@H]1O (stereo partly specified) 12.5% [at 60.1 µM]
O=C1OCCN1C(=O)[C@H]1[C@H](c2ccc(F)cc2)C(c2ccccc2)=NN1c1ccc(Br)cc1 -20.5%
CCSc1ccc2c(c1)N(CCCN1CCN(C)CC1)c1ccccc1S2 -14.4%
CC[C@@H]1C(c2cccc(Cl)c2)=NN(c2ccc(Br)cc2)[C@H]1C(=O)N1CCOC1=O 0.969%
CC[C@H](C)[C@H]1O[C@]2(CC[C@@H]1C)C[C@@H]1C[C@@H](CC=C(C)[C@@H](O[C@H]3C[C@H](OC)[C@@H](O[C@H]4C[C@H](OC)[C@@H](O)[C@H](C)O4)[C@H](C)O3)[C@@H](C)C=CC=C3CO[C@@H]4[C@H](O)C(C)=C[C@@H](C(=O)O1)[C@]34O)O2 -5.17%
CC[C@]1(O)C[C@@H]2CN(CCc3c([nH]c4ccccc34)[C@@](C(=O)OC)(c3cc4c(cc3OC)N(C)[C@H]3[C@@](O)(C(=O)OC)[C@H](OC(C)=O)[C@]5(CC)C=CCN6CC[C@]43[C@@H]65)C2)C1 -28.5%
NCCCCCN 14.1% [at 60.1 µM]
NC(C(=O)NC1C(=O)N2C(C(=O)O)=C(Cl)CSC12)c1ccccc1 (stereo unspecified) -15.8% [at 60.1 µM]
Cc1cc2oc(=O)cc(-c3ccccc3)c2c(C)c1-c1ccc(C(F)(F)F)cc1 -12.5%
COc1ccccc1CNC(=O)[C@H](NC(=O)C1CCN(C(=O)[C@@H](N)CCSC)CC1)C(C)C 24.5%
Cc1cccc(C2=NN(c3ccccc3)[C@H](CO)[C@H]2c2ccccc2)c1 2.28%
CC(=O)N[C@@H](Cc1ccc(O)cc1)C(=O)N[C@H](C(=O)N[C@@H](C)C(=O)N[C@H](C=O)CC(=O)O)C(C)C 17% [at 60.1 µM]
Cn1nnnc1SCC1=C(C(=O)O)N2C(=O)[C@@H](NC(=O)[C@@H](O)c3ccccc3)[C@@H]2SC1 -15.8% [at 12 µM]
CC[C@H](C)[C@H](NC(=O)[C@@H](NC(=O)[C@@H](NC(=O)[C@H](CCC(=O)O)NC(=O)[C@H](CCC(=O)O)NC(=O)[C@H](CCC(=O)O)NC(=O)[C@H](C)NC(=O)[C@@H](N)CC(C)C)C(C)C)C(C)C)C(=O)N[C@@H](CCCNC(=N)N)C(=O)N[C@@H](CO)C(=O)N[C@@H](C)C(=O)N[C@@H](CC(N)=O)C(=O)N[C@@H](Cc1ccccc1)C(=O)N[C@H](C(=O)N[C@@H](CC(=O)O)C(=O)N[C@@H](CC(N)=O)C(=O)O)[C@@H](C)O 20.6% [at 60.1 µM]
Cc1c(C)c2c(c(C)c1O)CCC(C)(CCCC(C)CCCC(C)CCCC(C)C)O2 (stereo unspecified) -6.48% [at 19.4 µM]
CC[C@H](C)[C@H](NC(=O)[C@@H]1CCCN1C(=O)[C@H](Cc1cnc[nH]1)NC(=O)[C@H](CCCCNC(=O)[C@H](CCCN=C(N)N)NC(=O)OCc1ccccc1)NC(=O)[C@H](Cc1ccc(O)cc1)NC(=O)c1cccnc1)C(=O)O (Nicotinoyl-YK([Arg-Cbz])HPI-OH) 13.3% [at 60.1 µM]
COC(=O)C1OC(=O)C2OC23[C@]2(C)C(O)CC4C(C)(C)C(OC(C)=O)CC(OC(C)=O)[C@@]4(C)C2CC[C@@]13C (stereo partly specified) -3.2% [at 60.1 µM]
OCC(O)C(O)C(O)CO (stereo unspecified) -2.18% [at 60.1 µM]
CCOC(=O)/C(=C\c1ccc(N2CCC(c3ccccc3)=N2)cc1)C(C)=O -5.25%
CN1C=CC(=C2C=CN(C)C=C2)C=C1 13.2% [at 60.1 µM]
CC[C@@]1([C@@H]2O[C@@H]([C@H]3O[C@@](O)(CO)[C@H](C)C[C@@H]3C)C[C@@H]2C)CC[C@H]([C@]2(C)CC[C@]3(C[C@H](O)[C@@H](C)[C@@H]([C@@H](C)[C@@H](OC)C(C)C(=O)O)O3)O2)O1 (stereo partly specified) -12.5% [at 60.1 µM]

Potency, inactive:
O=C(NCc1ccccc1)C1(C(F)(F)F)C/C(=C/CCO)CCCO1 (stereo unspecified)
Clc1ccc2ncnc(NCc3ccc4c(c3)OCO4)c2c1
C[C@H]1c2cccc(O)c2C(O)=C2C(=O)[C@]3(O)C(O)=C(C(N)=O)C(=O)[C@@H](N(C)C)[C@@H]3[C@@H](O)[C@@H]21
C=CCc1ccccc1OCC(O)CNC(C)C (stereo unspecified)
Cc1c(O)cccc1C(=O)N[C@@H](CSc1ccccc1)[C@H](O)CN1C[C@H]2CCCC[C@H]2C[C@H]1C(=O)NC(C)(C)C
Cc1c(C)c2c(c(C)c1O)CC[C@@](C)(CCC[C@H](C)CCC[C@H](C)CCCC(C)C)O2

Potency, active:
CN(C)CCNc1ccc2ncn3c4ccc(O)cc4c(=O)c1c23 22.4 µM
CC(C)CC1=C/C(=C/c2ccc(-c3ccccc3)o2)C(=O)O1 44.7 µM
O=C(O)Cc1ccc(S(=O)(=O)N2CCCC2)s1 79.4 µM
Nc1ccc2nc(-c3ccc(-c4nc5ccc(N)cc5[nH]4)cc3)[nH]c2c1 50.1 µM
CCCCCCCC/C=C\CCCCCCCCCCCC(=O)O 10.6 µM
NN=C1c2ccccc2C(=O)C1C(=O)C(c1ccccc1)c1ccccc1 (stereo unspecified) 22.4 µM
Cc1ccc2nc(-c3ccc(NC(=O)CN4CCN(C(=O)c5ccco5)CC4)cc3)sc2c1 44.7 µM
N#Cc1ccc[n+](CC(=O)c2ccc(O)c(O)c2)c1 0.891 µM
CN(C)/C=C/C=C1C(=O)CCCC1=O 79.4 µM
NS(=O)(=O)c1ccc(N/N=C/c2ccc(O)c(O)c2O)c([N+](=O)[O-])c1 10 µM
CC(=C/C(=O)O)/C=C/c1ccc(Cl)o1 25.1 µM
C=CCOC(=O)c1cc(-c2ccc(/C=C3\C(=O)NC(=O)C(C#N)=C3C)o2)ccc1Cl 28.2 µM
CC/C=C\C/C=C\C/C=C\CCCCCCCC(=O)O 3.16 µM and 28.2 µM
Oc1cc(O)c2c(c1)OC(c1ccc(O)c(O)c1)C(O)C2 (stereo unspecified) 3.16 µM
